This is an account of results in PubChem BioAssay AID485344 (National Center for Advancing Translational Sciences (NCATS), 2010).

Several values for one entry are separate records, joined by “and”; a condition that tells them apart may be missing. Identical values can stand only once. The whole screen tested about 340,000 compounds, of which about 6,900 (2%) were called active. Rule as the data show it: active = inhibition above about 30%; inactive = below that, where a call was filed. Only a part is listed here, and it is no random draw. The source gives no active or inactive call for entries shown without one.

UniProt P14416, sequence (P14416 whole entry, looked up): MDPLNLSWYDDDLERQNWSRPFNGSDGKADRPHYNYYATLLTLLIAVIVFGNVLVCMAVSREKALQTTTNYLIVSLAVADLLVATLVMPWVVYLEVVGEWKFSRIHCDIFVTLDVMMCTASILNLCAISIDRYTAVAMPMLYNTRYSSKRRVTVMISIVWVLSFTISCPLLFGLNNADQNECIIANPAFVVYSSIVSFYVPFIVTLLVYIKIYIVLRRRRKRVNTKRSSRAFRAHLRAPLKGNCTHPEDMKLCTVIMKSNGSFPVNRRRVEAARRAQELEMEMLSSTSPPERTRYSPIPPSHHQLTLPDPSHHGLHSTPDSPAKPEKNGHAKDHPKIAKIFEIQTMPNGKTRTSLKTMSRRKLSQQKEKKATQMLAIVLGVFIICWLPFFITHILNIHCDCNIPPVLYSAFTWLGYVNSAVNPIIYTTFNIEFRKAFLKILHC

The target in the assay is D(2) dopamine receptor (Homo sapiens) (UniProt P14416). The assay can be described thus: HTS Assay for Allosteric Antagonists of the Human D2 Dopamine Receptor: Primary Screen for Antagonists. Also: 0% is about no effect. The following applies: HEK293 TREx D2 cells, calcium flux, dopamine EC80; at 10 µM; stronger effect = higher value. Summed up:
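Tetracycline-induced HEK293 T-REx cells expressing D2 force-coupled to calcium signalling were dye-loaded, exposed to compound for 180 s, then challenged with an EC80 of dopamine; calcium flux was followed kinetically for a further 180 s.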
A general note: Calcium assays in cells follow changes in intracellular calcium, usually with a dye or a luminescent sensor.
The inhibition is the change of the read-out against control, counted positive when it falls. Take `Cc1c(Cl)cccc1NC(=O)CC1NCCNC1=O` (stereo not given): the inhibition is active: 33.6%. The same measure for `CCc1nn(CC(=O)NCCN(CC(C)C)CC(C)C)c(=O)c2cc3sc(C)cc3n12`: 8.78%. In the case of `Cc1cc(C)cc(NC(=O)C2CCN(c3cnccn3)CC2)c1`, the inhibition was active: 33%. The same measure for `COc1ccc(CNC(=O)Cn2c(=O)n3nc(-c4cccc(F)c4)nc3c3ccccc32)cc1OC`: 19%; for `Cc1cc(C)c(C#N)c(N2CCN(CCOc3ccc(Cl)cc3)CC2)n1`: active: 121%. Consider `COc1ccc(CNC(=O)C2=Cc3cccc(OC)c3OC2)cc1OC`, for which the inhibition was 15.8%. Take `COc1ccc(OC)c(NS(=O)(=O)c2ccc3c(c2)CCCN3C(=O)C2CCC2)c1`: the inhibition worked out at 19.9%. As for `CCc1cc(=O)oc2c(C)c3c(cc12)CN(CCc1ccccc1)CO3`, the figure is -17.9%; as for `O=C(Nc1ccc(F)cc1F)c1cc(CN2CCOCC2)on1`, 3.56%; as for `CNC(=O)c1ccc(-c2sc3nc(N4CCOCC4)c4c(c3c2N)CC(C)(C)OC4)o1`, active: 40.6%.

Turning to `CCc1cc2c(cc3c(=O)n(CC(=O)NC(C)C)nc(CC)n32)s1`, the inhibition is -8.63%. The same measure for `COc1ccc(CNC(=O)CSCc2ccc(C)cc2)c(OC)c1`: 3.05%. As for `Cc1ccc(NS(=O)(=O)c2ccc(-c3cc(C)no3)cc2)c(C)c1`, the figure is 5.96%. In the case of `CCC1CCCCN1CCCNC(=O)c1sc2nc(C)cc(C)c2c1-n1cccc1` (stereo not given), the inhibition was -0.97%.

Turning to `CCCN(CCC)CCCNC(=O)c1sc2nc3n(c(=O)c2c1C)CCC3`, the inhibition is -6.28%. As for `Cc1nn(CC(=O)Nc2ccc(Br)cc2F)c(=O)c2cccn12`, the figure is active: 47.2%; as for `O=C(NCC(c1ccc2c(c1)OCO2)N1CCOCC1)C(=O)Nc1ccc(Cl)cc1` (stereo not given), -25.5%.

As to `Cc1cc(NC(=O)Nc2ccccc2)n(-c2ccccc2)n1`, the inhibition is active: 31.4%.

In the case of `Cc1ccccc1OCCSc1nnc(-c2ccc([N+](=O)[O-])cc2)o1`, the inhibition was -15.9%.

On to `Oc1cccc(-c2nc(-c3cccs3)c(-c3cccs3)[nH]2)c1`, for which the inhibition stood at 25.7%. The same measure for `Cc1cccc(OC(=O)c2nc(SCc3ccccc3F)ncc2Cl)c1`: 19.3%; for `Cc1nn(C)c(C(=O)NCc2ccc(Cl)cc2)c1Cl`: active: 44.4%. As for `CCOC(=O)c1ccc(NC(=O)Cn2cc(C(=O)c3cccs3)c3ccccc32)cc1`, the figure is 6.56%; as for `Cc1ccc(Nc2nc3c(S(=O)(=O)c4ccccc4)nnn3c3ccc(Cl)cc23)c(C)c1`, 0.971%. The same measure for `COc1cc2nc(Nc3ccc(C)c(C)c3)nc(N)c2cc1OC`: 0.751% and active: 30.4%; for `Cc1nc2ccn(Cc3cccs3)c(=O)c2cc1C(=O)NCc1ccc(Cl)cc1`: -8.7%; for `CC(CC(=O)NCc1ccc(Cl)cc1Cl)CC1=NS(=O)(=O)c2ccccc2N1` (stereo not given): -7.04%. As for `COc1ccc(CCNC(=O)c2cc(=O)c3c(C)cc(C)cc3o2)cc1OC`, the inhibition was determined as 1.11%. As for `COc1cc2c(cc1OC)n(CC(=O)Nc1ccccc1)c(=O)n1nc(-c3ccccc3)nc21`, the figure is 11.3%; as for `COc1ccccc1NC(=O)C1=C(C)Nc2c(C(=O)Nc3cccc(C)c3)cnn2C1c1ccccc1C` (stereo not given), 8.61%; as for `O=C(CCn1c(=O)c2cccn2c2cccnc21)NCc1ccc(Cl)cc1`, 9.22%. The same measure for `COC(=O)c1ccc(NC(=O)C(=O)NCCc2sc3nc(-c4ccc(OC)cc4)nn3c2C)cc1`: 7.48%.

As for `CCN(CC)C(=O)Cn1c(=O)n(CC(=O)N2CCCCC2)c(=O)c2sccc21`, the inhibition was active: 33%.

Consider `Cc1ccc(/C=C/c2nc3ccccc3n2S(=O)(=O)c2cccc(Cl)c2)cc1`, for which the inhibition was -12%. The same measure for `CCOc1ccc(C(=O)NNC(=O)CN2C(=O)NC3(CCCC3)C2=O)cc1`: active: 42.1%; for `CN1c2ccccc2C(C)(C)C12C=Nc1c(ccc3ccccc13)O2` (stereo not given): active: 34.4%. The same measure for `CCN(CC)C(=O)C1CCN(c2cc(C)nc3c(-c4ccc(OC)c(OC)c4)c(C)nn23)CC1`: -6.26%; for `Cn1c(C(=O)N2CCCC(C(=O)N3CCN(c4ccccc4)CC3)C2)cc2sccc21` (stereo not given): 17.6%; for `CCCCNC(=O)CSC1=Nc2ccccc2C2=NC(CCC(=O)NCc3ccccc3OC)C(=O)N12` (stereo not given): 18.4%.

`CCc1ccc(NC(=O)CSc2cn(CC(=O)N3CCOCC3)c3ccccc23)cc1`: the inhibition is 0.892%. As for `COc1ccc(NC(=O)Cn2c(=O)n(-c3ccc(C)c(C)c3)c(=O)c3c4c(sc32)CCCCC4)cc1Cl`, the figure is -1.64%.

Regarding `CCc1ccc(CNc2ncnc3onc(-c4ccc(Cl)cc4)c23)cc1`, the inhibition is 17.4%. Consider `CCCCOC(=O)c1c(C)oc2ccc(NS(=O)(=O)c3ccc(F)cc3C)cc12`, for which the inhibition came out at 8.28%.

With `CCOc1ccc(CN(C(=O)c2cc(=O)c3cc(Cl)ccc3o2)C2CCS(=O)(=O)C2)cc1` (stereo not given), the inhibition was 8.49%.

For `COc1ccc(-c2cc(C(F)(F)F)n3nc(C(=O)Nc4sc5c(c4C(=O)OC(C)C)CCCC5)cc3n2)cc1OC`, the inhibition was -0.065%. As for `COc1ccc(N2CCN(C(CNC(=O)c3cccc(OC)c3)c3cccnc3)CC2)cc1` (stereo not given), the figure is -15.1%. As for `O=C(CSc1oc(-c2ccc(F)cc2)nc1S(=O)(=O)c1ccc(Cl)cc1)c1ccccc1`, the figure is -8.31%. The same measure for `COc1cccc(-c2cn3c(n2)sc2cc(C(=O)NCCC4=CCCCC4)ccc23)c1`: -27.7%. With `Cc1ccc(CN2CCN(c3ncccn3)CC2)o1`, the inhibition was active: 85.7%. As for `O=[N+]([O-])c1cccc(-c2ccc(CN3CCN(c4ccccc4)CC3)o2)c1`, the figure is active: 46.8%. Consider `CC(=O)c1ccccc1OCCCCN1CCCCC1`, for which the inhibition was active: 58.5%. Regarding `O=C(c1ccc2c(c1)N(Cc1cccc(Cl)c1)C(=O)c1ccccc1S2(=O)=O)N1CCCCCC1`, the inhibition was 2.12%.

In the case of `Cc1ccc(NC(=O)C2CCN(C(=O)c3cnn(-c4ccccc4)c3-n3cccc3)CC2)cc1C`, the inhibition is -7.99%. As for `O=C(CN1CCCN(Cc2cccc(F)c2)S1(=O)=O)Nc1ccc2c(c1)OCCO2`, the figure is 10.9%. With `Cc1cccc(-c2nc(C)c(CCNC(=O)c3cccs3)s2)c1`, the inhibition was determined as 10.9%.

As to `O=C(NCC(c1cccnc1)N1CCc2ccccc2C1)C(=O)Nc1ccc(F)cc1F` (stereo not given), the inhibition was determined as 16.2%. As for `CCS(=O)(=O)c1ncc(Cl)c(C(=O)Nc2c(C(=O)c3ccc(C)cc3)oc3ccccc23)n1`, the figure is 6.58%; as for `Cc1ccc(-n2ncc(C(=O)N3CCN(C(=O)c4ccco4)CC3)c2C2CCN(C(=O)OC(C)(C)C)CC2)cc1`, -6.6%; as for `COC(=O)c1nnn(-c2ccc(Cl)cc2)c1C(=O)OC`, -3.26%. As for `O=C(CCS(=O)(=O)c1nc(-c2ccc3c(c2)OCO3)cc(C(F)(F)F)n1)Nc1ccc(F)cc1F`, the figure is -10.9%.
